Data: PubChem BioAssay AID1159614 (National Center for Advancing Translational Sciences (NCATS), 2016)
The whole screen tested about 45,000 compounds, of which about 65 (0.1%) were called active. Calls follow the shape of the dose curve; as a rule, active = well fitted activation curve with a large enough effect; inconclusive = small, poorly fitted or top-dose-only effect; inactive = no such curve, though single readings can be large or run the other way. The list shows a part of the results.

target: Galactocerebrosidase (Homo sapiens) (UniProt P54803); assay: A Novel Cell-Based Assay to Identify Small Molecules for B -Galactocerebrosidase; conditions: 145M-Twi-hGALC-G270D cells (Twitcher mouse brain line with human GALC G270D), HMU-beta-Gal fluorescence, 48 h; series mostly up to 57.5 µM; activation: at the top concentration; also: 0% is about no effect; nearly all actives have a fitted effect of over 65% in size
Sequence of UniProt P54803 (P54803 whole entry, looked up): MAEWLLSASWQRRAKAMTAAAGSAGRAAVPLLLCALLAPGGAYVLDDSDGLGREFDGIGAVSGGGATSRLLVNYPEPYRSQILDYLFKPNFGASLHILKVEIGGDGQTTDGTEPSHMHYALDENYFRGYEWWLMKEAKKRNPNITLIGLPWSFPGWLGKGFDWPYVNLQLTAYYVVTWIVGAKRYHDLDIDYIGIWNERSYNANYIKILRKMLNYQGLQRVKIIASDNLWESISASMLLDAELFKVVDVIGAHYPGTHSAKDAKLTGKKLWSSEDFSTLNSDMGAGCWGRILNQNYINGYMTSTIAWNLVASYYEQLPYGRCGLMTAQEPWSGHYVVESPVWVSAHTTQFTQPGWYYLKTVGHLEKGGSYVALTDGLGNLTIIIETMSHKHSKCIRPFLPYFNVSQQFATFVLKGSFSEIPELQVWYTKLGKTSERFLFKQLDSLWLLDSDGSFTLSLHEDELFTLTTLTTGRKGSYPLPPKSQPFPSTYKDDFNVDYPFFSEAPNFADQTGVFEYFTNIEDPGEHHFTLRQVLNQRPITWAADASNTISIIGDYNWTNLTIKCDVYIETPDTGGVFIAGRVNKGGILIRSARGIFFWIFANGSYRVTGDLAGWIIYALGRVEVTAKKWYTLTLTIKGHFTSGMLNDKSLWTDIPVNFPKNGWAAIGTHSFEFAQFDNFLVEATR
Method in brief: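 Brain-derived Twitcher mouse 145M-Twi cells stably expressing human GALC-G270D or wild-type GALC, treated live, then residual GALC activity read by fluorescence of HMU-b-Gal substrate (0.1 mM final) in citrate-phosphate buffer pH 5.2 with sodium taurocholate. Signal increase indicates enhancement.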

activation, inactive:
CCOc1ccc(C(=O)c2cn(CC(=O)Nc3ccc(F)cc3)c3cc4c(cc3c2=O)OCO4)cc1 0.136%
CCOc1ccccc1CNC(=O)CCCn1ncn2c(cc3occc32)c1=O -7.93%
COc1ccc(CCNC(=O)Cn2c(=O)nc(-c3ccccc3)c3ccccc32)cc1OC -10.5%
COc1ccc(N(CC(=O)NCc2ccccc2Cl)S(=O)(=O)c2c(C)nn(C)c2C)cc1 2.79%
Cc1ccc2cccc(NC(=O)COc3cc(C)c(Cl)c(C)c3)c2n1 -14.1%
CN(C)CCCN(C(=O)c1ccc(Br)s1)c1nc2ccc(F)cc2s1 -14.4%
Cn1c(=O)c(=O)n(C)c2cc(NC(=O)c3cccc(F)c3)c(Cl)cc21 -17.2%
CCCSCCCNC(=O)C1CCCN(c2nn3cc(-c4ccc(OC)cc4)nc3s2)C1 (stereo not drawn) 2.15%
CCCCN(CC)CCNC(=O)CN1C(=O)COc2ccc(S(=O)(=O)N3CCCC3)cc21 -9.18%
Cc1ccc(CCNC(=O)CCn2nc(-c3ccccc3)ccc2=O)cc1 -15.3%
Cc1nn(CC(=O)Nc2ccccc2C(F)(F)F)c(=O)c2cccn12 -8.38%
O=C(NCCc1ccccc1)c1ccc(Cn2c(SCc3cccc(F)c3)nc3cccnc32)cc1 -27.2%
Cc1ccccc1NC(=O)N1CCc2c(sc3c2CCCC3)C1c1ccccc1 (stereo not drawn) -7.12%
COc1ccc(NC(=O)c2ccc3nc(CCc4ccccc4)oc3c2)c(OC)c1 6.17%
CCOc1ccc(C(=O)Nc2c(C(=O)c3ccc(OC)cc3)oc3ccccc23)cc1 13.7%
CCCCCn1cc2c(c1-c1ccc(Br)cc1)c(=O)n(C)c(=O)n2C -10.9%
CCC(=O)Nc1ccc(CC)cc1-c1nc2ccccc2n(CC(=O)Nc2cccc(Cl)c2)c1=O -1.49%
O=C(Cn1c(=O)oc2cc(Cl)ccc21)Nc1cccc(C(F)(F)F)c1 -5.95%
Cc1nc2ncnn2c(C)c1CCC(=O)N1CCN(c2ccccc2)CC1 -0.21%
COc1cccc(NC(=O)Cn2nnc(-c3nc(-c4ccccc4)no3)c2N)c1 -24.4%
COc1ccc(OC)c(NC(=O)c2cc3cc(C)ccc3n2C)c1 -7.5%
CCc1ccccc1NC(=O)Cn1c(=O)n(-c2ccc(C)cc2)c(=O)c2c1c1cc(C)ccc1n2C -15.5%
CCOc1ccc(NC(=O)c2ccc3c(=O)n4nc(Nc5ccccc5C)sc4nc3c2)cc1 -27.5%
CCn1c(NCc2ccc(OC)cc2)nc2ccccc21 -9.79%
CCS(=O)(=O)c1ncc(N(Cc2ccccc2)Cc2ccco2)c(C(=O)Nc2ccc(C)c(C)c2)n1 -6.63%
COc1ccc(CCNC(=O)CCCCn2c(=O)c3ccccc3n(Cc3ccccc3C)c2=O)cc1OC -6.06%
COCCNC(=O)CCc1c(C)nc2c(-c3ccc(F)cc3)c(C)nn2c1C 7.6%
COc1cc(C(CC(=O)Nc2ccc(F)cc2F)N2Cc3ccccc3C2=O)cc(OC)c1OC (stereo not drawn) -6.94%
COc1ccc(S(=O)(=O)NCCCO)cc1-c1nnc2c3ccccc3c(C)nn12 6.09%
CCOc1ccc(NC(=O)Cn2cc(C(=O)c3ccc(CC)cc3)c(=O)c3cc(OC)c(OC)cc32)cc1 0.446%
COc1ccc2cc3cc(C(=O)N4CCN(c5cccc(Cl)c5)CC4)sc3nc2c1 -9.5%
COc1ccc(NS(=O)(=O)c2ccc3c(c2)CCN3C(=O)CCC(=O)O)cc1Cl -6.84%
Cc1cc(NC(=O)CCS(=O)(=O)c2cc(Br)cc3c2N(C(=O)C2CC2)CC3)ccc1Br -6.18%
CCc1ccc(-n2c(=O)c3sc4ccccc4c3n(CC(=O)NC3CCCCC3)c2=O)cc1 -7.69%
CC(C)CCNC(=O)CSc1nc2ccccc2nc1Cc1ccccc1 -6.86%
CCOC(=O)c1ccc2c(c1)N(C(CC)C(=O)Nc1ccccc1OC)C(=O)c1ccccc1S2 (stereo not drawn) -16%
Cc1ccc(NC(=O)Cn2nc(-c3ccncc3)ccc2=O)cc1Cl -19.5%
Cn1ccc2cc3c(cc21)CCN3C(=O)Nc1cccnc1 -4.94% [at 23.8 µM]
O=C(Nc1c(C(=O)Nc2ccc(F)cc2)oc2ccccc12)c1cc2ccccc2o1 0.0652%
COc1ccc(Cn2c(=O)c3cccnc3n(CC(=O)Nc3ccc(C)c(F)c3)c2=O)cc1 1.44%
COc1cc2c(cc1OC)C(COc1ccc3c(C)cc(=O)oc3c1)N(C(=O)C(C)C)CC2 (stereo not drawn) -1.12%
CCOC(=O)c1nc(Nc2ccc(C(C)=O)cc2)c2ccccc2n1 -9.16%
Cc1cc(Oc2c(C(F)(F)F)oc3c(CN4CCC(C)CC4)c(O)ccc3c2=O)cc(C)c1Cl -5.07%
Cc1cccc(-n2ccnc2SCC(=O)Nc2ccc(F)cc2F)c1C -37.2%
Cc1ccc(C)c(CNC(=O)c2ccc3c(c2)nc2n3CCCCC2)c1 -4.67%
Cc1ccc(C)c(CN2CCC(CNC(=O)Nc3ccc(Br)cc3F)CC2)c1 -10.8%
O=C(O)CP(=O)(O)O -16.2%
CCc1ccc(NC(=O)Cn2nc3c4ccccc4n(Cc4ccccc4)cc-3c2=O)cc1 -8.27%
C[C@H](NC(=O)OC(C)(C)C)c1nnc(SCc2c(F)cccc2Cl)o1 -14.2%
O=C1CC(c2cccc(O)c2)c2c(nc(SCc3ccccc3F)[nH]c2=O)N1 (stereo not drawn) 4.71%
CCOc1ccc(C(=O)N(Cc2sccc2C)C2CCS(=O)(=O)C2)cc1 (stereo not drawn) 2.03%
CCOc1ccc(-c2cc(OC(=O)c3ccc(OC)cc3)c3c(C)oc(C)c3c(=O)c2)cc1 -16.3%
COCCCNC(=O)c1cc2c(=O)oc3ccc(C)cc3c2s1 -17.8%
O=C(c1ccc(CSc2nc3ccncc3n2Cc2ccc(F)cc2)cc1)N1CCCCCC1 -8.95%
Cc1ccc(-c2nc3c4ccccc4[nH]c(=O)n3n2)cc1 -6.8%
CCc1nc2ccc(C(=O)N3CCN(c4cccc(C)c4C)CC3)cc2nc1CC -17%
CCc1cccc(-n2c(C)nc3c(cnn3-c3ccc(C)c(C)c3)c2=O)c1 -14%
CCOc1ccc(NC(=O)CSc2nc(C)c(C(=O)Nc3ccccc3)c(-c3ccc(Cl)cc3)c2C#N)cc1 -8.11%
CCc1ccccc1NC(=O)Nc1ccc2c(c1)N(CC)C(=O)c1ccccc1S2 2.02%
CCOc1ccccc1CNC(=O)c1cc2n(n1)CCCN(Cc1ccc(C)cc1)C2=O -7.39%
COc1cccc(NC(=O)CSc2nc3cc(OC)c(OC)cc3c3nc(-c4ccccc4)nn23)c1 -12.2%
CCn1c2ccccc2c2cc(CN3CCN(Cc4ccccc4Cl)CC3)ccc21 -2.86%
CC(=O)Nc1ccc(S(=O)(=O)Nc2cc(C)on2)cc1 -11.2%
COc1cc(OC)c(NC2(c3ccccc3)C(=O)c3ccccc3C2=O)cc1Cl -18.3%
O=C(Nc1ccc(OC(F)(F)F)cc1)c1nc2ccccc2nc1N1CCCCC1 -2.19%
Cc1cccc(NC(=O)Cn2nnc(C(=O)Nc3ccc(F)c(Cl)c3)c2N)c1 -5.41%
COc1cc(C2C(C(=O)OCC(C)C)=C(C)N=C3SCCC(=O)N32)ccc1OCc1ccccc1 (stereo not drawn) 4.19%
COc1cccc(NC(=O)CSc2nc(=O)n(Cc3ccco3)c3c2CCC3)c1 -8.38%
Cc1ccc(S(=O)(=O)c2cn(CC(=O)Nc3ccc4c(c3)OCO4)c3ccccc3c2=O)cc1 -10.7%
Cc1sc2ncn(CC(=O)N3CCN(c4ccc(F)cc4)CC3)c(=O)c2c1S(=O)(=O)N1CCCCC1 0.478%
Cc1cccc2sc(N(CCCN(C)C)C(=O)c3ccc(Cl)s3)nc12 -6.2%
Cc1ccc(Nc2nc3c(S(=O)(=O)c4ccccc4)nnn3c3ccsc23)c(C)c1 0.596%
Cc1cc(C)c2nc(N(Cc3cccnc3)C(=O)c3ccc(S(=O)(=O)N(C)C)cc3)sc2c1 1.48%
CCN(CC)CCCNC(=O)CSc1c2c(nc3cc(Cl)ccc13)CCCC2 -12.7%
CC1=C(C(=O)Nc2ccc(C)cc2C)C(C(C)C)n2nc(SCc3ccccc3Cl)nc2N1 (stereo not drawn) -20.7%
Cc1c(C(=O)Nc2cccc(C(F)(F)F)c2)sc2nc3n(c(=O)c12)CCCC3 -3.17%
COc1cccc2sc(N(Cc3cccnc3)C(=O)Cc3ccccc3)nc12 -27.1%
Cn1c(C(=O)NCc2ccccc2F)cc2oc3ccccc3c21 -7.89%
CCN1CCN(c2cc3c(cc2F)c(=O)c(S(=O)(=O)c2ccc(OC)cc2)cn3CC)CC1 -17.1%
COc1cccc(NC(=O)Cn2c(=O)n(-c3ccc(Cl)cc3)c(=O)c3oc4ccccc4c32)c1 -1.46%
CC(C)C(=O)N1c2ncnn2C2(CCCCC2)[C@@H]2CCCC[C@@H]21 -10.2%
CC1=C(C(=O)Nc2cccnc2)C(c2cccc(F)c2)n2nc(SCc3ccccc3)nc2N1 (stereo not drawn) -7.59%
COc1cc(C(=O)Nc2ccc3[nH]c(=O)sc3c2)cc(OC)c1OC -6.85%
COc1cccc(C(=O)NCC(=O)OCc2cc(=O)n3c(C)csc3n2)c1 -7.23%
CC(C)Cn1c(=O)c2sccc2n2c(CCCC(=O)NCCc3ccccc3)nnc12 -4.01%
Cc1ccc(S(=O)(=O)N2CCN(Cc3noc(CCC(=O)N4CCCCC4)n3)CC2)c(C)c1 -5.93%
COc1ccc(C2CC(=O)N(Cc3ccc(F)cc3)c3ccccc3S2)cc1 (stereo not drawn) -1.46%
CCCCNc1ncnc2c1nnn2C -12.8%
CCN1CCN(c2oc(-c3ccc(COc4ccc(C)cc4)o3)nc2C#N)CC1 -17.9%
COc1ccc2oc(-c3cccc(NC(=O)c4ccc(C#N)cc4F)c3)nc2c1 -20.8%
CCCCNC(=O)c1ccc2c(c1)NC(=O)C(CS(=O)(=O)Cc1cccc(C)c1)N2 (stereo not drawn) -19%
COc1ccccc1CNC(=O)NCc1noc2ccc(C)cc12 -13.9%
O=c1c2cn[nH]c2nc(SCc2cccc(Br)c2)n1-c1ccc(Cl)cc1 -36.6%
Cc1ccn2c(Nc3ccc4c(c3)OCO4)c(-c3ccc(N(C)C)cc3)nc2c1 -15.3%
COc1ccc(CNC(=O)c2nc(SC(C)C)ncc2Cl)cc1 -2.79%
Cc1nc(Nc2ccc(Cl)cc2)cc(-c2ccccc2)n1 -14.4%
CCOc1ccc(NC(=O)CC2C(=O)N(c3ccccc3)C(=O)N2C2CCCCC2)cc1 (stereo not drawn) -26.2%
COCCCNC(=O)c1sc2nc3n(c(=O)c2c1C)CCC3 -16.9%
